In the supplement of paper PMC9151546:
Most values come without repeats; read them as rough.

Tests used:
CHO-K1 [1] = experiment: micronucleus frequency (% of nucleated events); higher = more micronuclei (genotoxic)
CHO-K1 [2] = experiment: hypodiploid nuclei frequency (% of nucleated events); higher = more hypodiploid events (aneugenic)
CHO-K1 [3] = experiment: relative survival (nuclei to bead ratio vs DMSO control) (% of vehicle control); higher = more surviving cells
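For hypodiploid nuclei frequency (% of nucleated events) in this document: hypodiploid nuclei gated on a flow cytometer with 488 nm excitation after SYTOX Green staining, cultures at 37 °C, positive controls vinblastine without S9 and cyclophosphamide with S9.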
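For micronucleus frequency (% of nucleated events) in this document: cells lysed with nuclei stained by SYTOX Green, then micronucleus-gated events counted against nucleated events by flow cytometry with 488 nm excitation.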
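For relative survival (nuclei to bead ratio vs DMSO control) in this document: Lysed-cell nuclei stained with SYTOX Green and counted against counting beads by flow cytometry at 488 nm excitation, with vinblastine (no S9) and cyclophosphamide (plus S9) as positive controls.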

Cc1ccccc1O [o-Cresol]
Conditions	hypodiploid nuclei frequency, CHO-K1 [2] [%]	micronucleus frequency, CHO-K1 [1] [%]	relative survival, CHO-K1 [3]
concentration: 4.48 (µM), S9 metabolic activation: with S9, exposure time: 3-4 hours	0.24	1.44	117
concentration: 4.48 (µM), S9 metabolic activation: without S9, exposure time: 24 hours	0.58	1.92	88.5
concentration: 5.6 (µM), S9 metabolic activation: with S9, exposure time: 3-4 hours	0.16	1.34	109
concentration: 5.6 (µM), S9 metabolic activation: without S9, exposure time: 24 hours	0.66	1.78	92.5
concentration: 7 (µM), S9 metabolic activation: with S9, exposure time: 3-4 hours	0.38	1.62	111
concentration: 7 (µM), S9 metabolic activation: without S9, exposure time: 24 hours	0.58	1.62	89.4
concentration: 8.75 (µM), S9 metabolic activation: with S9, exposure time: 3-4 hours	0.24	1.1	128
concentration: 8.75 (µM), S9 metabolic activation: without S9, exposure time: 24 hours	0.66	1.22	104
concentration: 10.9 (µM), S9 metabolic activation: with S9, exposure time: 3-4 hours	0.24	2	91.2
concentration: 10.9 (µM), S9 metabolic activation: without S9, exposure time: 24 hours	0.8	2.6	87
concentration: 13.7 (µM), S9 metabolic activation: with S9, exposure time: 3-4 hours	0.34	2.08	103
concentration: 13.7 (µM), S9 metabolic activation: without S9, exposure time: 24 hours	0.78	1.96	80.5
concentration: 17.1 (µM), S9 metabolic activation: with S9, exposure time: 3-4 hours	0.38	2.34	95.4
concentration: 17.1 (µM), S9 metabolic activation: without S9, exposure time: 24 hours	0.74	1.94	81.3
concentration: 21.4 (µM), S9 metabolic activation: with S9, exposure time: 3-4 hours	0.4	2.04	84.7
concentration: 21.4 (µM), S9 metabolic activation: without S9, exposure time: 24 hours	0.92	1.78	82.1
concentration: 26.7 (µM), S9 metabolic activation: with S9, exposure time: 3-4 hours	0.32	1.12	120
concentration: 26.7 (µM), S9 metabolic activation: without S9, exposure time: 24 hours	0.54	1.32	95.8
concentration: 33.4 (µM), S9 metabolic activation: with S9, exposure time: 3-4 hours	0.28	1.18	132
concentration: 33.4 (µM), S9 metabolic activation: without S9, exposure time: 24 hours	0.56	1.58	90.5
concentration: 41.7 (µM), S9 metabolic activation: with S9, exposure time: 3-4 hours	0.08	1	131
concentration: 41.7 (µM), S9 metabolic activation: without S9, exposure time: 24 hours	0.5	1.54	87.5
concentration: 52.2 (µM), S9 metabolic activation: with S9, exposure time: 3-4 hours	0.18	1.52	119
concentration: 52.2 (µM), S9 metabolic activation: without S9, exposure time: 24 hours	0.64	1.64	106
concentration: 65.2 (µM), S9 metabolic activation: with S9, exposure time: 3-4 hours	0.26	1.16	97.3
concentration: 65.2 (µM), S9 metabolic activation: without S9, exposure time: 24 hours	0.6	2.06	84.3
concentration: 81.5 (µM), S9 metabolic activation: with S9, exposure time: 3-4 hours	0.24	1.36	107
concentration: 81.5 (µM), S9 metabolic activation: without S9, exposure time: 24 hours	0.68	1.66	85.2
concentration: 102 (µM), S9 metabolic activation: with S9, exposure time: 3-4 hours	0.3	1.26	85.6
concentration: 102 (µM), S9 metabolic activation: without S9, exposure time: 24 hours	0.78	2	82.6
concentration: 127 (µM), S9 metabolic activation: with S9, exposure time: 3-4 hours	0.3	1.22	90.2
concentration: 127 (µM), S9 metabolic activation: without S9, exposure time: 24 hours	1.06	2.56	76.3
concentration: 159 (µM), S9 metabolic activation: with S9, exposure time: 3-4 hours	0.18	1.72	88.1
concentration: 159 (µM), S9 metabolic activation: without S9, exposure time: 24 hours	1.48	2.46	74.2
concentration: 199 (µM), S9 metabolic activation: with S9, exposure time: 3-4 hours	0.14	1.46	102
concentration: 199 (µM), S9 metabolic activation: without S9, exposure time: 24 hours	1.74	2.46	67.7
